Measured values: publication PMC6919601, “Identification of Plasmodium dipeptidyl aminopeptidase allosteric inhibitors by high throughput screening” (PLoS ONE, 2019)
About 230 (0.21%) of roughly 110,000 compounds showed an effect of 50% or more. The list shows a part of the results.

molecular target: DPAP1 (Plasmodium falciparum, UniProt Q8IIJ9); assay: primary screen, percent inhibition; read by cleavage of a fluorogenic dipeptide substrate; higher = more effect of the substance; parameters: species or system P. falciparum D10 trophozoite lysates; single well
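Further: 30 min substrate incubation versus DMSO and 10 µM JCP410 controls.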

Chain of DPAP1 (Q8IIJ9 whole entry, looked up): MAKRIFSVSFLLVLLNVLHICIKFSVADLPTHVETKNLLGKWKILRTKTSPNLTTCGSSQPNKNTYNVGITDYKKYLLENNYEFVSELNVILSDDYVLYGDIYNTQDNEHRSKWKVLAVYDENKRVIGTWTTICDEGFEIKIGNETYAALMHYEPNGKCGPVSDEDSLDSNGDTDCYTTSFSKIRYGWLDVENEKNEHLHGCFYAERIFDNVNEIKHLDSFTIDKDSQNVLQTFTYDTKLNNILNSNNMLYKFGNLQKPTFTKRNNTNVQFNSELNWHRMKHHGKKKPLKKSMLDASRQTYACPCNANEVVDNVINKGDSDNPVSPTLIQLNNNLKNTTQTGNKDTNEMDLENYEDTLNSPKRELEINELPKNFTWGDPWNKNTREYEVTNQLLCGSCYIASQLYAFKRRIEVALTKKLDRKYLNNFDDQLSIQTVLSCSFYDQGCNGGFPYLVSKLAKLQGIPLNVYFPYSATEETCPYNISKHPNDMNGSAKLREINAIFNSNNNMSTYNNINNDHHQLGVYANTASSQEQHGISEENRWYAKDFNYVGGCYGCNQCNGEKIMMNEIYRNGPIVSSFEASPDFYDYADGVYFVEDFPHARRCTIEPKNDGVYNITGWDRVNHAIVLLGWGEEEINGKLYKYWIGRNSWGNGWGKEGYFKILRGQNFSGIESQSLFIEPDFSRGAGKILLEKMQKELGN

SMILES | % Inhibition @ 10 uM [%]
Cc1ccc(Cn2nc(C)c(NC(=O)c3onc(C)c3Cl)c2C)cc1 | -5.25
O=C1/C(=C/c2cc(Br)ccc2O)Sc2ccccc21 | -7.8
CC1(C)CC(O)=C/C(=N/C2CC(C)(C)NC(C)(C)C2)C1 | -2.8
Cc1ccccc1-c1nc(CS(=O)(=O)CC(=O)NCCCN2CCCC2)c(C)o1 | 3.19
CNc1nc(C)c([N+](=O)[O-])c(Nc2ccc(OC)cc2)n1 | -2.42
Cc1cc(O)n2nc(C(F)(F)F)c(-c3ccc(Cl)cc3)c2n1 | -2.28
Cc1ncc(CO)c2cc(C(=O)O)c(=O)oc12 | -3.13
COc1ccc(C2C3=C(O)CC(c4ccco4)CC3=Nc3ccccc3N2C(C)=O)cc1OC (stereo not drawn) | -4.67
CCN(CC)CCN(CC)Cc1ccc(F)c(Br)c1 | 3.19
CCN(C(=O)COc1ccccc1Cl)c1ccccc1 | -3.58
CNC(=O)C1CC(=O)N(CCc2ccc(OC)cc2)/C(=N/c2cccc(C(F)(F)F)c2)S1 (stereo not drawn) | 3.79
Cc1cccc(NC(=O)CSc2nccn2C)c1 | -2.78
COCCCNC(=O)CCS(=O)(=O)Cc1ccc(C)cc1 | -2.99
CCN1CCCC1CNC(=O)C1c2ccccc2C(=O)N(C2CCCC2)C1c1cccs1 (stereo not drawn) | -5.92
COc1ccc(C2Nc3ccccc3N=C3CC(C)(C)CC(O)=C32)c(OC)c1 (stereo not drawn) | 0.634
Cc1ccc(CNC(=O)Cn2ccc3ccccc3c2=O)o1 | -0.631
CC(C)=CCC/C(C)=C/CN1CCN(c2ccccc2F)CC1 | 1.74
Cn1cccc1CN1CCN(Cc2ccccc2)CC1 | 2.1
CCN(Cc1ccccc1)C(=O)Cn1c(=O)n(CC(=O)NCc2ccco2)c(=O)c2sccc21 | -4.43
O=C(O)c1ccc(CNCc2ccc3c(c2)OCO3)s1 | -0.637
CCOC(=O)C1=C(C)OC(n2cccc2)=C(C#N)C1c1ccc(OC)cc1 (stereo not drawn) | -0.0108
Cc1ccc(CCNC(=O)C2CCN(c3ncnc4c3nc3n4CCCCC3)CC2)cc1 | 1.19
CCOc1ccc(-n2nnc(-c3nc(-c4ccccc4F)no3)c2N)cc1 | -0.212
Cc1nc(C)c(C(=O)NCc2ccco2)s1 | 2.41
Cc1ccc(-n2ncc3c(N4CCOCC4)ncnc32)c(C)c1 | 2.24
O=C(NCCc1ccccc1)C1CCCN(S(=O)(=O)c2cccs2)C1 (stereo not drawn) | 1.16

SMILES | % Inhibition @ 10 uM [%]
COc1ccc(C)cc1NC(=O)C1C2C=CC(C2)C1C(=O)O (stereo not drawn) | 3.65
COc1ccc(-c2cc(C(F)(F)F)c(C#N)c(SCC(=O)NC3CC3)n2)cc1OC | -0.68
c1cc(-c2nc3cc(Oc4ccc5[nH]c(-c6ccncc6)nc5c4)ccc3[nH]2)ccn1 | 2.04
COc1ccc2c(c1)C(=O)N(c1ccccc1)C(=O)/C2=C/Nc1ccccc1 | -2.63
CCCCn1c(CCCNC(=O)c2ccccc2)nc2ccccc21 | -11.5
CN1CCCN(c2ncc(-c3cccc(N4CCCCC4C(=O)NCC#N)c3)s2)CC1 (stereo not drawn) | 1.7
O=C(Cc1ccccc1F)Nc1cccnc1Cl | -4.49
Cc1c2cnn(CC(=O)NCCCSC3CCCCC3)c(=O)c2c(C)n1Cc1ccc(F)cc1 | -0.447
NC(=O)CSc1nc(-c2ccccc2)nc2c1Cc1cc(Cl)ccc1O2 | 0.44
Cc1nn2c(O)c3c(nc2c1-c1ccc(Cl)cc1)CCCC3 | 1.72
Cc1ccc(C(=O)N/C(=C/c2ccccc2F)C(=O)N(C)C)cc1 | 2.76
O=C(OCCN1CCCCC1)c1ccccc1Br | -3.63
CC(=O)c1ccc(NC(=O)CN2C(=O)C3C4CCC(C4)C3C2=O)cc1 (stereo not drawn) | 3.29
COc1cc(CN2CCN(Cc3cccc(C)c3)CC2)cc2c1OCO2 | -5.35
COCCNC(=O)C1CCCN(c2nn3cc(-c4ccc(OC)cc4)nc3s2)C1 (stereo not drawn) | 3.21
O=C1CSC(c2ccccc2)N1CC(O)c1ccc([N+](=O)[O-])cc1 (stereo not drawn) | 1.66
N#Cc1c(N)nc(SCC(N)=O)c(C#N)c1-c1cccs1 | 4.15
Cc1nc2c3ccccc3n3c(CCCC(=O)N4CCN(c5ccccn5)CC4)nnc3n2n1 | 2.04
COc1ccc(OC)c(CN2CCN(Cc3ccc(Cl)cc3)CC2)c1 | -12.2
COc1ccc2c(Cl)c(C(=O)O)sc2c1Cl | 1.38
O=C(Nc1nccs1)C1=Cc2sc3c(c2CS1)CCCC3 | 0.442
COc1ccc(C2SCC(=O)N2Cc2ccccc2)cc1 (stereo not drawn) | -4.11
NC(=O)NC(CCc1ccccc1)c1ccccc1 (stereo not drawn) | -1.54
O=C(Nc1ccc(NC(=O)c2ccc3c(c2)OCO3)cc1)c1ccc2c(c1)OCO2 | 0.163
CCc1nnc(NC(=O)c2cc3ccc4cccnc4c3[nH]2)s1 | 0.711
O=C(O)CCCN1C(=O)C(O)=C(C(=O)c2ccc(Cl)cc2)C1c1ccc(F)cc1 (stereo not drawn) | 3.49

SMILES | % Inhibition @ 10 uM [%]
Cc1nn(C)cc1CNC(=O)c1cnn2c1NC(c1ccc(Br)cc1)CC2C(F)(F)F (stereo not drawn) | 3.89
CC1=C(c2ccc(C(C)C)cc2)S(=O)(=O)N=C1N1CCC(C(=O)NCc2ccc(F)cc2)CC1 | -1.56
CCOc1ccc(C(=O)C2=C(O)C(=O)N(CCN(C)C)C2c2ccc(C)o2)cc1Cl (stereo not drawn) | -5.93
CC(=O)Nc1cc(C(N)=O)c(Cl)cc1Cl | 1.08
COc1ccc(CN2CCc3ccccc3C2)cc1Br | 2.96
O=C(c1ccc(COc2cccc(Cl)c2)o1)N1CCCCC1 | -4.18
Cc1ccccc1C(=O)Nc1c(C(=O)N2CCOCC2)cnn1-c1ccccc1 | 4.83
CC(C)c1ccc(C(=O)Nc2ccc(S(=O)(=O)Nc3nccs3)cc2)cc1 | -1.42
CC(C)OC(=O)/C(=C/c1ccc2c(c1)OCO2)NC(=O)c1ccco1 | -1.81
C/C(Cl)=C/Cn1c(SCc2ccccc2Cl)nc2c1c(=O)[nH]c(=O)n2C | 2.36
CCOc1ccc(-c2nc3s/c(=C\c4cccnc4)c(=O)n3n2)cc1 | 0.222
N=c1scc(-c2ccc(Br)cc2)n1-c1ccccc1 | 11.5
Cc1c(CNC2CCCc3ccccc32)c(C(=O)O)c(C)n1Cc1ccc(F)cc1 (stereo not drawn) | -5.49
CN(C)CCN(C)CC1=CC[C@H]2C[C@@H]1C2(C)C | -2.21
O=[N+]([O-])c1cc(C(F)(F)F)ccc1-n1nnc2ccccc21 | 2.94
N#CC1=C(N)Oc2[nH]nc(-c3ccccc3)c2C1c1ccc(F)cc1F (stereo not drawn) | -6.36
O=C(CNS(=O)(=O)c1ccccc1)N1CCN(c2ccc(F)cc2)CC1 | -3.83
COc1cc(OC)cc(C(=O)Nc2nc(-c3nnn(-c4ccc(OC)c(OC)c4)c3C)ns2)c1 | -5.67
Cc1ccc(-c2cc(C(=O)NCCN3CCOCC3)c3ccccc3n2)o1 | 2.32
Cc1nnc2c(O)nc3ccccc3n12 | 1.3
CCOc1ccc2c(c1)S/C(=C\c1ccccc1)C2=O | -0.366
Cc1cc(Cl)ccc1OCC(=O)N1CCc2ccccc21 | -7.58
c1ccc2c(c1)CSc1ccccc1C2 | -5.79
COc1ccc(C(=O)N2CCN(Cc3cccc(Cl)c3)CC2)cc1OC | -7.45
CCOc1ccc(CCNC(=O)CCc2nnc3ccc(N4CCC(C)CC4)nn23)cc1OCC | -0.544
CCN(Cc1ccccc1)C(=O)Cn1cc(C=O)c2ccccc21 | 0.718

SMILES | % Inhibition @ 10 uM [%]
CCC(C)NC(=O)C1CCN(c2ncnc3c2sc2cccc(F)c23)CC1 (stereo not drawn) | -2.37
COc1cc(C2C3=C(O)CCCC3=Nc3nc(SC)nc(O)c32)cc(OC)c1OC (stereo not drawn) | 3.61
Cc1ccc(NC(=O)NC(C)c2ccc(C)cc2C)cc1 (stereo not drawn) | -6.59
O=C(NC1CCCC1)c1nnc(-c2ccccc2)o1 | 3
C(=N\n1cnnc1)/c1cccs1 | 3.06
CCOC(=O)C1C(=O)C=C(Nc2ccc(OC)cc2)CC1c1ccccc1 (stereo not drawn) | -1.96
Cc1ccc(NC(=O)CC(C)(C)CC(=O)O)cc1Cl | -1.28
CCSc1nc(O)cc(=O)n1CC | 4.9
CC1CCN(C(=O)CCNS(=O)(=O)c2ccc3nc(O)ccc3c2)CC1 | 1.66
COc1ccc(Br)cc1CN1CCN(c2ccc([N+](=O)[O-])cc2)CC1 | -2.81
CCN(CC)c1ccc(NC(=O)c2ccc(C)o2)cc1 | 3.92
CSc1ncc(C(=O)NC(C)(C)C)c(-c2ccccc2)n1 | 2.9
N#CC(C(=O)Nc1ccccc1)=C1CCCC1 | -8.38
COc1cc(C=C2C(=O)N(C)C(=O)N(C)C2=O)ccc1OCc1ccc(Cl)cc1Cl | 1.43
Cc1nc(=O)c(-c2ccccc2)c(C)n1CCCCCC(=O)O | 1.02
CCc1ccc(C2CC(c3ccccc3C)n3ncnc3N2)cc1 (stereo not drawn) | -3.37
CC(C)C(=O)N1CCC(C/N=C/C2=C(O)CC(C)(C)CC2=O)CC1 | 4.55
O=C(Cn1ncc2c3ccccc3nc-2c1O)N1CCC(Cc2ccccc2)CC1 | -1.46
COc1ccccc1C(=O)Nc1sc2c(c1C(=O)O)CCCC2 | 14.4
CCC(C(=O)NCc1ccco1)n1nc(C)c2c(C)n(-c3ccccc3)nc2c1=O (stereo not drawn) | -6.13
CO/N=C(/C(=O)O)c1cn2cc(Br)ccc2n1 | -7.87
CCCCCOc1ccc(C2NC(C(=O)O)CS2)cc1 (stereo not drawn) | -2.54
COc1cc(C2c3c(oc4ccccc4c3=O)C(=O)N2c2nncs2)ccc1O (stereo not drawn) | 2.1
CC(C)CC(=O)NC1(C(F)(F)F)N=C(c2ccccc2)NC1=O (stereo not drawn) | 2.64
